# Measured values from publication PMC4336329 (PLoS ONE, 2015).
# Hit rate of the full screen: of about 310,000 compounds, about 2,200 (0.71%) showed an effect of 50% or more. The effect is printed as a negative number. The list shows a part of the results.
# Biological target: human ether-à-go-go-related gene (hERG) potassium channel (human, UniProt Q12809)
# Assay: primary screen, population patch clamp on CHO cells stably expressing hERG
# human ether-à-go-go-related gene (hERG) potassium channel, sequence (Q12809 whole entry, looked up): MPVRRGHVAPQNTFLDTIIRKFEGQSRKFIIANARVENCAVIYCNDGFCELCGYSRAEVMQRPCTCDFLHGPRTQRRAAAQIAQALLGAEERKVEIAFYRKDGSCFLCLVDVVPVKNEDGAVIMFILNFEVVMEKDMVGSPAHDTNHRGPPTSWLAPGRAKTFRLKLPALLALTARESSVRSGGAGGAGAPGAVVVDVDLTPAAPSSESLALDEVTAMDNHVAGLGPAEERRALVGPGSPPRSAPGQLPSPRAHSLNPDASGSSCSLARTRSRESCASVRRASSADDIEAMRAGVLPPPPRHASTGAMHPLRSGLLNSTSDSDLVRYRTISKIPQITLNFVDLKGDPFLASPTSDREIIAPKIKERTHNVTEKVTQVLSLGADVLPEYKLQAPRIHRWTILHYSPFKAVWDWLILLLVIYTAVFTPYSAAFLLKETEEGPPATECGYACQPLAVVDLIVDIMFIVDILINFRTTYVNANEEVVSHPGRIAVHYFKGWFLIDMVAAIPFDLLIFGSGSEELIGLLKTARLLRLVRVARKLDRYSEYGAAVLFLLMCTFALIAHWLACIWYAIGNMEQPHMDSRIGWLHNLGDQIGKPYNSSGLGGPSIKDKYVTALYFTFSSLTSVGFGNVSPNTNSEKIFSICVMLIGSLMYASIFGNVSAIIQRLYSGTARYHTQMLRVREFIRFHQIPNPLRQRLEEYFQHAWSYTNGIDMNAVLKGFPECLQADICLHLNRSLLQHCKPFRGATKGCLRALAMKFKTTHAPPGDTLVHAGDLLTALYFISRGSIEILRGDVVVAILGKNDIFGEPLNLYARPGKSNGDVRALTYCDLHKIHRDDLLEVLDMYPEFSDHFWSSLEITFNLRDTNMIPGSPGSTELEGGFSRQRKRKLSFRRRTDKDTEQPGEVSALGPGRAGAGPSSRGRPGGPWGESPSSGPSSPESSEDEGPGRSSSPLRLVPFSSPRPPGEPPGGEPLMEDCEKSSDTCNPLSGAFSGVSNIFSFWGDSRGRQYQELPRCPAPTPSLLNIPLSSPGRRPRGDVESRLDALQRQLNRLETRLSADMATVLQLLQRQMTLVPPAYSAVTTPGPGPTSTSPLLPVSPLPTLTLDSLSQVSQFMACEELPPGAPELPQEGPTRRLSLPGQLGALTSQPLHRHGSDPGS
row,SMILES,"hERG current change (%, negative = inhibition) at 1uM [%]"
1,O=C(Cc1ccccc1[N+](=O)[O-])N1CCN(Cc2ccc3c(c2)OCO3)CC1,9.23
2,COc1ccc(OC)c(NC(=O)C(C)Oc2ccc(Br)cc2)c1 (stereo not drawn),13.8
3,CCOc1ccccc1NS(=O)(=O)c1cc2c3c(c1)C(C)C(=O)N3CCC2 (stereo not drawn),18.4
4,CNC(=O)CN1C(=O)NC2(CCc3ccccc32)C1=O (stereo not drawn),16.1
5,O=C(CN1C(=O)CSc2ccc(S(=O)(=O)N3CCOCC3)cc21)NCc1cccnc1,3.64
6,CCOC(=O)c1ccc(NC(=O)CSCC(=O)OCC(=O)c2ccccc2)cc1,2.26
7,CN(C)S(=O)(=O)c1cccc(NC(=O)Cc2ccsc2)c1,9.34
8,Fc1ccc(N2CCN(Cc3ccc4c(c3)OCO4)CC2)cc1,-1.69
9,Cn1c(SCC(=O)c2ccccc2)nnc1-c1cccnc1,5.4
10,O=C(CNC(=O)C1CCCCC1)Nc1ccccc1Cl,5.14
11,COC(=O)c1cc(C(=O)OC)n(Cc2ccc(F)cc2)n1,0.566
12,Cc1sc(/N=C/c2ccccc2O)c(C#N)c1C,18.5
13,Clc1cccc(Cl)c1CN1CCN(c2ccccc2)CC1,15.9
14,COc1ccc(N(CC(=O)Nc2nccs2)S(=O)(=O)c2c(C)nn(C)c2C)cc1,-4.42
15,COC(=O)C(CC(=O)O)NCc1ccco1 (stereo not drawn),13
16,O=c1[nH]c(C2CCN(S(=O)(=O)c3ccc4c(c3)OCCO4)CC2)nc2c1nnn2Cc1ccccc1F,6.14
17,O=C(NN1CCOCC1)c1cnn2c(C(F)F)cc(-c3ccccc3)nc12,9.22
18,COc1cccc2cc(C(=O)N3CCN(C45CC6CC(CC(C6)C4)C5)CC3)c(=O)oc12,10.2
19,CCOc1ccccc1NC(=O)NC1(C(=O)N2CCOCC2)CCCCC1,15.1
20,CCc1ccc(NC(=O)c2cccc(NC3=NC4CS(=O)(=O)CC4S3)c2)cc1 (stereo not drawn),15.9
21,CC[C@H]1CC2CN3CCc4c([nH]c5ccccc45)C(C(=O)OC)(C2)C13.Cl (stereo partly drawn),7.18
22,CSc1ccc(/C=N/NC(=O)c2ccc(C)c(C)c2)cc1,9.46
23,Cc1ccc(C(=O)Nc2c(N)nc(SCC(=O)NCC3CCCO3)[nH]c2=O)cc1 (stereo not drawn),17.3

row,SMILES,"hERG current change (%, negative = inhibition) at 1uM [%]"
1,O=C(c1ccco1)N1CCN(S(=O)(=O)c2ccc(Br)s2)CC1,6.92
2,CCOC(=O)C(Cc1ccc(N)cc1)N1C(=O)c2ccccc2C1=O.Cl (stereo not drawn),13.9
3,COc1cc(/C=N/n2c(-c3cc(C)[nH]n3)n[nH]c2=S)ccc1O,7.87
4,CCCCc1nnc(NC(=O)Cn2cnc3ccccc3c2=O)s1,7.92
5,Fc1ccc(NC(=S)Nc2cccc3cnccc23)cc1,8.6
6,COc1nc(-c2ccccc2Cl)ccc1C#N,9.27
7,CC1(CC(=O)N/N=C/c2cc([N+](=O)[O-])c(O)cc2O)OCCO1,10.3
8,Cc1cccc(N2CCN(C(=S)Nc3ccc4nc(N5CCN(C)CC5)cc(C)c4c3)CC2C)c1 (stereo not drawn),5.72
9,CN(Cc1ccccc1)C(=O)Nc1ccc(Cl)cc1,11
10,Cc1csc(=O)n1CCC(=O)OCC(=O)Nc1ccc(F)c(F)c1F,3.14
11,CC1=C(C(=O)OCC2CCCO2)C(c2ccc(Cl)cc2)NC(=O)N1 (stereo not drawn),6
12,CC(=O)c1sc(=S)n(-c2ccccc2)c1C,13
13,CCCN1CCN(C2CCCCC2NS(=O)(=O)c2ccc(Cl)cc2)CC1 (stereo not drawn),-37.3
14,COC(=O)c1ccc(NC(=O)CNC(=O)C2CCCCC2)c(C)c1,3.53
15,Cc1cc(C)c(OCCCCN2CCC(C)CC2)c(Br)c1,-24.1
16,Cc1ccc(C)n1-c1ccc(C(=O)/C=C/N(C)C)cc1,13.5
17,Cc1ccc(Sc2c(C)nn(C(=O)C3CC3)c2C)cc1,10.4
18,NS(=O)(=O)c1ccc(NC(=O)CSc2cn[nH]n2)cc1,12.9
19,Cc1cc(NC(=O)CSc2sc3c(O)cc(=O)[nH]c3c2C#N)ccc1Br,6.74
20,CCC(=O)N1CCc2cc(S(=O)(=O)CCC(=O)Nc3ccc(OC)cc3)ccc21,18.7
21,OCC[C@H]1C[C@H](O)[C@@H](O)[C@]2(Cc3ccccc3CCO2)O1,7.08
22,COc1ccc(CCC(=O)N2CCN(S(=O)(=O)c3cccc(Cl)c3)CC2)cc1,5.2
23,O=C(CCC(=O)c1ccc(Oc2ccccc2)cc1)Nc1cccc(Cl)c1Cl,14.2

row,SMILES,"hERG current change (%, negative = inhibition) at 1uM [%]"
1,O=C(N/N=C/c1ccc2nccnc2c1)c1ccncc1,13.4
2,Cc1cc(S(=O)(=O)Nc2ccc(C(=O)N3CCN(C(=O)c4ccco4)CC3)cc2)ccc1F,-16.8
3,O=c1[nH]c2cccnc2n1Cc1ccccc1,5.41
4,COC(=O)C(NC(C)=O)(Nc1ccccn1)C(F)(F)F (stereo not drawn),6.74
5,CCOC(=O)c1cnc2ccc(C(=O)OC)cc2c1Nc1cccc(C(=O)O)c1.Cl,3.08
6,O=C(OCCCOC(=O)c1ccccc1O)c1ccccc1O,-0.173
7,COc1ccc(Nc2nc(N3CCOCC3)nc(N3CCOCC3)n2)cc1Cl,10.7
8,COc1ccc2[nH]c(=O)c(CN(Cc3nnnn3Cc3ccc(F)cc3)CC3CCCO3)cc2c1 (stereo not drawn),-11.3
9,CCOc1ncccc1C(=O)OCC(=O)N(CC)c1ccccc1,0.813
10,S=C(NCc1ccco1)N1CCN(c2nc(-c3ccccc3)cs2)CC1,23.6
11,C[C@@H]1NC(=O)c2cc([N+](=O)[O-])cc(I)c2NCCCC[C@@H](C(N)=O)NC(=O)[C@H](CC(N)=O)NC1=O,14.1
12,CCCCOC(=O)C1=C(C)NC(=O)NC1c1ccc(OC)cc1 (stereo not drawn),18
13,Cc1c(C(=O)NN)[nH]c2ccc([N+](=O)[O-])cc12,19.2
14,O=C1CCCc2c1nc(-c1cccc(Cl)c1)n2O,-1.13
15,COc1ccccc1C(=O)Nc1ccnn1C1CCN(C(=O)c2ccoc2)CC1,-9.88
16,COCCn1c(SCC(=O)N2CCCCC2)nc2c(c1=O)SCC2,15.8
17,N#C/C(=C\c1cccc(O)c1)C(=O)Nc1ccc2c(c1)OCCO2,9.51
18,O=c1c(-c2ccc(Cl)cc2)cnc2n1CCS2,4.44
19,CCN(CC)c1ccc(NS(=O)(=O)c2ccc(-c3ccc(=O)[nH]n3)o2)c(C)c1,2.96
20,CC1(C)S[C@@H]2[C@H](NC(=O)COc3ccccc3)C(=O)N2C1C(=O)OCc1ccccc1 (stereo partly drawn),-5.33
21,CCOC(=O)N1CCN(C(=O)CN(C)S(=O)(=O)c2ccc3c(c2)C(C)(C)C(=O)N3C)CC1,12.7
22,COC(=O)C1=C(Nc2ccc(C)cc2)C=C(C)C(C(=O)OC)C1c1ccc(OC)cc1 (stereo not drawn),16.9
23,CC(=O)N(C)c1nnc(-c2cnccn2)s1,12.1

row,SMILES,"hERG current change (%, negative = inhibition) at 1uM [%]"
1,C=CCNC(=S)Nc1ccc(Br)cc1F,7.48
2,O=Cc1cn(CC(O)Cn2cc(C=O)c3ccccc32)c2ccccc12,8.31
3,COc1ccc(N(C(=O)CNC(=O)c2ccco2)C(C(=O)NC2CCCCC2)c2ccncc2)cc1 (stereo not drawn),16.5
4,CC1Cc2ccccc2N1C(=O)CN(C)CC(=O)Nc1ccc(F)cc1 (stereo not drawn),-3.44
5,CC(C)OC(=O)c1cc2ccccc2oc1=O,12.3
6,COc1cccc(-c2cc(C(=O)NCc3ccc(Cl)cc3)no2)c1,8.67
7,COc1ccc(N2CCN(C(=O)CNC(=O)c3ccc(C(C)(C)C)cc3)CC2)cc1,8.22
8,Cc1cccc(CNC(=O)C2CCCN(c3nn4c(=O)cc(C)nc4s3)C2)c1 (stereo not drawn),15.5
9,O=C(COC(=O)c1cccnc1Cl)c1ccccc1,7.98
10,O=C1CCCC2=C1C(c1ccsc1)CC(=O)N2c1ccccc1F (stereo not drawn),12.6
11,Cc1ccc(N2CC(C(=O)NCc3ccco3)CC2=O)cc1Cl (stereo not drawn),12.9
12,O=C(CSc1ccc2nnc(-c3ccc(Cl)cc3)n2n1)N1CCCc2ccccc21,3.3
13,c1ccc2c3c([nH]c2c1)-c1[nH]ncc1CC3,13.4
14,COc1ccc(C(=O)NCC(=O)OCC(=O)N2CCc3ccccc32)cc1,7.08
15,COc1cccc(-c2nc(CS(=O)CC(=O)NC3CCCC3)c(C)o2)c1 (stereo not drawn),12.2
16,Cc1cccc(-c2nnc(NC(=O)c3ccc(Cl)cc3)o2)c1,-0.441
17,CC1CCN(S(=O)(=O)c2ccc3c(c2)N(CC(=O)NCCCN2CCCC(C)C2)C(=O)CS3)CC1 (stereo not drawn),11.9
18,Cn1nnnc1SCC(=O)c1c(N)n(C2CC2)c(=O)[nH]c1=O,26.4
19,Cc1ccccc1C(=O)NC1CCCCCCC1,11.3
20,O=C(CSc1ncnc2c1cnn2CCO)Nc1cccc(C(F)(F)F)c1,7.29
21,Cc1ccc(C)c(N2C(=O)CC(Cc3ccc(Br)cc3)C2=O)c1 (stereo not drawn),13.6
